Test results: the RNAGym collection of RNA variant scans (doi:10.1101/gad.245936.114)
Variants at the floor of the assay are shown more often than the library holds them.

B1: tRNA (parent)
chain: CUCUCGGUAGCCAAGUUGGUUUAAGGCGCAAGACUUUAAUUUAUCACUACGAAAUCUUGAGAUCGGGCGUUCGACUCGCCCCCGGGAGAUUUUUUCCUCGAGCAA

Variants of: B1
Assay: nonsense suppression (GFP-seq) (ratio to wild type); higher = more function; SUP4oc tRNA, yeast GFP reporter sort-seq
How it was run: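 Nonsense suppression (GFPSEQ) is the median GFP/RFP ratio of each sorting bin, weighted by the variant's estimated share of cells in that bin and expressed relative to the unmutated parent tRNA. Yeast strains carried genome-integrated variants of an ochre-suppressor tRNA from a library with ~3% random mutations, plus a galactose-driven GFP ochre reporter and RFP, and were grown in raffinose/galactose medium containing 80 mg/L adenine. Cells were sorted into GFP/RFP bins, each bin was Illumina-sequenced (phred ≥30), and variants were kept only with ≥100 reads and ≥30 cells.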

Nonsense suppression, ≤ 0.026:
G18C A30U A89U
G18C A31C
G18C A31C U55C U57A
G18C A31U
G18C A33G U63G U71C A87C
G18C A54C G84U
G18C A54G U55G C75G
G18C A62U
G18C C27U
G18C C29G G61C G67A U76G
G18C C29U
G18C C34A C80G
G18C C56A
G18C C56G G67C
G18C C72U
G18C C72U A74G
G18C C75A
G18C C81G G88A
G18C G25A A33U U55A C77U
G18C G25C
G18C G26C
G18C G26U A62C G67C
G18C G28A U35A C68A
G18C G28C G61A U71C U76A
G18C G32C
G18C G59C C72G
G18C G61U A74C
G18C G65C
G18C G65C C82A
G18C G66A G85C
G18C G66U
G18C G67A G69U
G18C G67C G85C
G18C G69A A87C
G18C G69C C82G
G18C G73C
G18C G78C
G18C G84C
G18C G86A
G18C G86C
G18C G88U
G18C U20C A33U A74C C77U
G18C U20G G59C
G18C U20G G65U C75A C77U
G18C U21A
G18C U21A A33U G66A
G18C U21G G32U
G18C U22C C34U U35G
G18C U22G G65A C68U G85U
G18C U35A
G18C U35C U70A C82U
G18C U63A
G18C U70C C81G
G18U A23G A24G
G18U A23U U63G
G18U A24C A31G C80A
G18U A24C G69A C75G
G18U A24U C75U
G18U A24U G69A
G18U A30C A33U
G18U A30C U70C A74C
G18U A30G
G18U A30G G85A
G18U A30U G78U
G18U A33G U76C G78A G85A
G18U A33U C56A
G18U A33U C82U A89C
G18U A54C U55C U71A
G18U A54U U58A
G18U A60U U76G
G18U A87U
G18U C27G A30C G66U
G18U C29G
G18U C34G
G18U C56A G69C
G18U C56U C64G G73C
G18U C64A
G18U C64A C77A
G18U C72G A74G
G18U C80U
G18U G19C G59U G66A
G18U G19C U21C U55A G86A
G18U G25A
G18U G25U C80G
G18U G25U G67C
G18U G28C C29A U57C
G18U G32A C75G
G18U G66U
G18U G67A G88A
G18U G67C
G18U G69C
G18U G88C
G18U U20C A30U C64U
G18U U21C
G18U U21C A24G C34U U55C
G18U U21C C34G A74C
G18U U21G A23U G61A G78A
G18U U22A
G18U U22A G32C A60C
G18U U22G
G18U U22G A31C G73A A74U
G18U U22G A31U G69C
G18U U22G U58G
G18U U35A G85U
G18U U35C
G18U U55A G66U G69A G88C
G18U U57A
G18U U57C
G18U U57G A60U G85A
G18U U57G G65C
G18U U63G
G18U U71A A89G
G18U U71G
G18U U71G C81A
G18U U76G
G19A A23C
G19A A23C G85U
G19A A23U
G19A A24C G85U
G19A A24G
G19A A30U
G19A A30U A54C
G19A A33G G85U
G19A A33U U71A
G19A A60C
G19A C27A
G19A C34G U70A
G19A C34U
G19A C64A C82G
G19A C64G C68U C82A
G19A C72A G86U
G19A C79A
G19A G26A C34G G73C C81A
G19A G26C
G19A G32C U55A U71A C80G
G19A G59A C64U
G19A G65C
G19A G66A
G19A G66U U70G
G19A G78C
G19A G84C
G19A U20A G84C
G19A U20G C56A
G19A U20G G25C U35A G59U
G19A U21G C34U C77A
G19A U21G C64U
G19A U21G G25U
G19A U22C A24U U55G G61U A87C
G19A U35A A60G
G19A U57A
G19A U57C
G19A U63A
G19A U63C
G19A U76G
G19C A24G C27G C80G G85C
G19C A24G U57A A62C G73A
G19C A24U A74C
G19C A30C U35C G67C A89U
G19C A30G A60U G66C A74C C75A
G19C A31C U55C G61C A87C
G19C A31G U57C G78C
G19C A33C G61U U71C A74G
G19C A33C G73U C77A
G19C A33G
G19C A54G G85A
G19C A60U C81U
G19C A74C
